According to patent US20250282824A1, “Inhibitors of the Wnt Signaling Pathway and Uses Thereof” (Stichting VU, priority 2021, published 2025):
Positions of bridges follow the written chain, without caps; N, C: chain ends. Non-standard residues stand in square brackets, D forms with d. b1 = not defined here; βAla = NCCC(=O)O

target: T1, β-catenin/TCF-4 interaction (Homo sapiens, UniProt P35222); assay: FP competition of the β-catenin/TCF-4 interaction (titration and 30 μM pre-screening); assay type: binding; details: 30 μM competitor; 0% = no competitor, 100% = E-CBD at 30 μM; singlets
T1 construct: a solution of 1 μM β-catenin (aa 1-781) and 40 nM FITC-labeled TCF-4 peptide was prepared; 3C protease recognition site (C); His6 (C); made in house; host or cells: Escherichia coli BL21 (DE3), pET-28a(+); the tracer is a synthetic peptide
T1 sequence (P35222 1-781): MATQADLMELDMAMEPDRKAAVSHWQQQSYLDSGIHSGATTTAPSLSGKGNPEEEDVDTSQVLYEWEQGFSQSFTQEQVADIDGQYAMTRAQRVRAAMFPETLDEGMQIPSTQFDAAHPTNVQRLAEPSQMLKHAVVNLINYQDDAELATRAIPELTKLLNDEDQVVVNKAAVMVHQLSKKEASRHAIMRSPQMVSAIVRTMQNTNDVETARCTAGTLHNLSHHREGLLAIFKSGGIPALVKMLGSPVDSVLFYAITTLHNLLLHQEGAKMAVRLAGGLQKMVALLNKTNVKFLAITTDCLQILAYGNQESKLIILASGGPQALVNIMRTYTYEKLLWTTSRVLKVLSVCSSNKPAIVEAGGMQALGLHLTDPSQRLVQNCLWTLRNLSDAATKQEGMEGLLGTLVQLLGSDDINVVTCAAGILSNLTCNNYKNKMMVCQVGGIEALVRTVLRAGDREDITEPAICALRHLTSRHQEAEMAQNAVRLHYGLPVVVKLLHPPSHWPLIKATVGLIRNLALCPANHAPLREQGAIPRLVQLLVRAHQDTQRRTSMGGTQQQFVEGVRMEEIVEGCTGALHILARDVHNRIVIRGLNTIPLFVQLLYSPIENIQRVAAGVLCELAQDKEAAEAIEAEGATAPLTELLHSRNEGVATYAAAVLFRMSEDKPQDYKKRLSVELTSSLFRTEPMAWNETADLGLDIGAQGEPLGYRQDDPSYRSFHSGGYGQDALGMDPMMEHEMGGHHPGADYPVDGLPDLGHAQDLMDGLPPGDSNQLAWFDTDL

In order of rising “Inhibition of the TCF/β-catenin interaction” value:
1. [βA-V-T-R-N-[C-V-p-P-D-C]-L-L-V-F-βA] (XVTRNCVXPDCLLVFX; HELM PEPTIDE1{[bAla].V.T.R.N.C.V.[dP].P.D.C.L.L.V.F.[bAla]}$PEPTIDE1,PEPTIDE1,6:R3-11:R3|PEPTIDE1,PEPTIDE1,1:R1-16:R2$$$V2.0; SMILES CC(C)C[C@@H]1NC(=O)[C@@H]2CSSC[C@H](NC(=O)[C@H](CC(N)=O)NC(=O)[C@H](CCCNC(=N)N)NC(=O)[C@H]([C@@H](C)O)NC(=O)[C@H](C(C)C)NC(=O)CCNC(=O)CCNC(=O)[C@H](Cc3ccccc3)NC(=O)[C@H](C(C)C)NC(=O)[C@H](CC(C)C)NC1=O)C(=O)N[C@@H](C(C)C)C(=O)N1CCC[C@@H]1C(=O)N1CCC[C@H]1C(=O)N[C@@H](CC(=O)O)C(=O)N2) [C-ox]  7%
2. [βA-V-[C-R-N-D-V-p-P-D-S-L-L-C]-F-βA]/b1 (cyclo([βAla]VCRNDV[dP]PDSLLCF[βAla]); linker 3-14 via b1; reading uncertain; also: printed as [βA-V-[C-R-N-D-V-p-P-D-S-L-L-C]-F-βA]/b1) [A-b1]  17%
3. [βA-V-T-R-C-D-V-p-P-D-S-C-L-V-F-βA] [B-o]  37%
4. [βA-V-T-R-[C-D-V-p-P-D-S-C]-L-V-F-βA] (XVTRCDVXPDSCLVFX; HELM PEPTIDE1{[bAla].V.T.R.C.D.V.[dP].P.D.S.C.L.V.F.[bAla]}$PEPTIDE1,PEPTIDE1,5:R3-12:R3|PEPTIDE1,PEPTIDE1,1:R1-16:R2$$$V2.0; SMILES CC(C)C[C@@H]1NC(=O)[C@@H]2CSSC[C@H](NC(=O)[C@H](CCCNC(=N)N)NC(=O)[C@H]([C@@H](C)O)NC(=O)[C@H](C(C)C)NC(=O)CCNC(=O)CCNC(=O)[C@H](Cc3ccccc3)NC(=O)[C@H](C(C)C)NC1=O)C(=O)N[C@@H](CC(=O)O)C(=O)N[C@@H](C(C)C)C(=O)N1CCC[C@@H]1C(=O)N1CCC[C@H]1C(=O)N[C@@H](CC(=O)O)C(=O)N[C@@H](CO)C(=O)N2) [B-ox]  50%
